Among all 350,000 compounds or so, about 990 (0.28%) were called active. Inconclusive means that the source gave no clear call. Such entries were picked first, then a sample of the others. The call rests on the fitted dose curve; in most records, active means well fitted inhibition curve with a large enough effect; inconclusive means small, poorly fitted or top-dose-only effect; inactive means no such curve, though single readings can be large or run the other way. Where the call is inconclusive, the potency comes from a doubtful curve fit. The source holds several records for some structures; these can differ, active in one and inactive in another.
Biological target: Tyrosyl-DNA phosphodiesterase 1 (Homo sapiens) (UniProt Q9NUW8)
UniProt Q9NUW8, sequence (Q9NUW8 whole entry, looked up): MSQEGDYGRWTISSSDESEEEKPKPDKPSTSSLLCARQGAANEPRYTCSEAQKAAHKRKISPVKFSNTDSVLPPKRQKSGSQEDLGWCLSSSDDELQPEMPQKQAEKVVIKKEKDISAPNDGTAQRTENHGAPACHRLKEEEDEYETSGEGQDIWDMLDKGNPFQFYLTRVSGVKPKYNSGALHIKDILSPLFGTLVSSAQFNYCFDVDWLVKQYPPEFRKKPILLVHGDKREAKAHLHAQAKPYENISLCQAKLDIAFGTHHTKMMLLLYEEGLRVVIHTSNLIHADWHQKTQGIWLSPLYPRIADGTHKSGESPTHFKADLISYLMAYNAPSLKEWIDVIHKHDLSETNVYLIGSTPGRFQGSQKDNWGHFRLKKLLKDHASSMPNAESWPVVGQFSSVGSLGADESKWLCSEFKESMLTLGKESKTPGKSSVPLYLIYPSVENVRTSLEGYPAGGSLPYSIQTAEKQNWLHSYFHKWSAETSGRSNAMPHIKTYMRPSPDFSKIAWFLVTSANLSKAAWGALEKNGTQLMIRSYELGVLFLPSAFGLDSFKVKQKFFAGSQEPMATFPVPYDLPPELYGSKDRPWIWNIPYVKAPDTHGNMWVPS
Assay: qHTS Assay for Inhibitors of Tyrosyl-DNA Phosphodiesterase (TDP1); further: nearly all actives have a fitted effect of over 40% in size
Conditions: recombinant TDP1, AlphaScreen DNA substrate cleavage; activity change, negative = inhibition: at 130 µM (top of the series) unless noted
Text: NIH Molecular Libraries Probe Production Network [MLPCN]
NIH Chemical Genomics Center [NCGC]
Assay Provider: Yves Pommier and Christophe Marchand, National Cancer Institute
Assay Title: qHTS Assay for Inhibitors of Tyrosyl-DNA Phosphodiesterase (TDP1); further: nearly all actives have a fitted effect of over 40% in size
Human tyrosyl-DNA phosphodiesterase I (Tdp1) is a rational anticancer target because this enzyme is involved in the repair of DNA lesions created by the trapping of human DNA topoisomerase I (Top1) following treatment by anticancer agents such as camptothecins. Recombinant Tdp1 was expressed and purified from E. coli in the laboratory (Anthony et al, Nucleic Acids Research, 2007, Vol. 35, 4474-4484). A Tdp1 DNA substrate bearing a 5' biotin and a 3' phospho-tyrosine was obtained by custom synthesis. This oligonucleotidic DNA substrate was subsequently coupled to a fluorescein isothiocyanate (FITC) group via the free amino group present on the phospho-tyrosine. Tdp1 was screened against the NCGC small molecule library using the AlphaScreen (AS) detection method in which a streptavidin donor AS bead is bound at the 5' end and an anti-FITC AS acceptor bead is bound at the 3' end of the DNA oligonucleotidic substrate. In the presence of Tdp1, the enzyme cleaves the tyrosine-FITC group, leaving a 3' end phosphate on the DNA substrate. This cleavage reaction results in a loss of signal in AS.
[1] 3 ul of buffer is dispensed in columns 3 & 4 as negative control (no enzyme and maximum signal),
[2] 3 ul of enzyme (1 nM final) is dispensed in columns 1,2, 5-48,
[3] 1 ul of substrate (15 nM final) is dispensed throughout the plate,
[4] 1 ul of AS donor/acceptor bead mix (10 ug/ml final) is dispensed throughout the plate
3 ul of Tdp1 enzyme is dispensed to 1536-well Kalypsys black solid bottom plates. Compounds and controls (23 nl) are transferred via Kalypsys Pin Tool. The plates are incubated for 15 min at room temperature, and then 1 ul of substrate is added to start the reaction. After 5 min incubation at room temperature, 1 ul of AS donor/acceptor bead mix is added and the plates are further incubated for 10 min at room temperature. The detection is then performed on a PerkinElmer Envision reader.
On the % scale 0 is the no-effect control and ±100 the full control effect; potency means the concentration at half of the fitted maximal effect; tags describe the fitted curve by direction and shape.

SMILES	Potency	activity change, negative = inhibition
CCOc1cc(S(=O)(=O)N2CCCC2)c(C)cc1C	inconclusive: 35.5 µM [inhibitor, single point]	–
O=C(NCCSc1ncc(-c2ccc(F)cc2)[nH]1)c1ccco1	inactive	–
CCSc1nnc(NC(=O)C2CC=CCC2C(=O)O)s1 (stereo unspecified)	active: 56.2 µM	–
COc1cccc(N2CCN(C(=O)C3CCCN(S(=O)(=O)c4ccc(Br)s4)C3)CC2)c1 (stereo unspecified)	inactive	–
Cc1ccc(S(=O)(=O)CCC(=O)Nc2nc3c(s2)CCCC3)cc1	inactive	–
CCOC(=O)COc1ccc2cc(C(=O)OCC)c(=O)oc2c1	inactive	–
COc1ccc2cc(C(C)C(=O)OC(C)C)ccc2c1 (stereo unspecified)	active: 79.4 µM	–
N[C@@H](C(=O)O)c1ccc(C(=O)O)c(C(=O)O)c1	active: 39.8 µM	–
O=C(CSc1ccc(-c2ccco2)nn1)NCc1ccc2c(c1)OCO2	inconclusive: 20 µM [inhibitor, partial curve, poor fit]	–
Cc1cccc2c(N=NC(=O)c3ccc(NS(=O)(=O)c4cccs4)cc3)c(O)[nH]c12	active: 50.1 µM	–
O=[N+]([O-])c1ccc(N2CCCCC2)c(Cl)c1N1CCCCC1	inactive	–
Cc1ccc(/C=C/C(=O)N2CCc3ccccc32)o1	inconclusive: 12.6 µM [inhibitor, partial curve, poor fit]	–
CCn1c(SCC(=O)NC(=O)NCc2ccco2)nnc1-c1cccs1	inconclusive: 79.4 µM [inhibitor, partial curve]	–
CCOC(=O)c1csc(NC(=O)c2cccs2)n1	inconclusive: 39.8 µM [inhibitor, single point]	–
C=CCn1c(SCc2ccccc2)nc(O)cc1=O	inconclusive: 2 µM [inhibitor, full curve]	–
Cc1ccc2nc3sc(C(=O)Nc4ccc(F)cc4)cc3cc2c1	active: 10 µM	–
CCOC(=O)c1[nH]c2c(c1C)C(=O)CC(c1ccco1)C2 (stereo unspecified)	inconclusive: 14.1 µM [inhibitor, partial curve]	–
O=C(N=Nc1c(O)[nH]c2ccccc12)c1cc(-c2cccs2)[nH]n1	inconclusive: 56.2 µM [inhibitor, partial curve]	–
COCC(C)NCc1cccc2ccccc12 (stereo unspecified)	inconclusive: 14.1 µM [inhibitor, full curve, poor fit]	–
O=C(O)c1cc(O)c2c(c1)[O][Bi][O]2	inconclusive: 28.2 µM [inhibitor, partial curve]	–
O=C(CN1C(=O)S/C(=C\c2ccc(O)c([N+](=O)[O-])c2)C1=O)Nc1ccc(N2CCOCC2)cc1	active: 44.7 µM	–
O=C(COC(=O)/C=C/c1ccco1)Nc1ncc(Cl)cc1Cl	active: 20 µM	–
COc1ccc(O)c(/C=N/NC(=O)c2c(C)nnn2-c2nonc2N)c1	inconclusive: 15.8 µM [inhibitor, full curve]	–
Nc1ccc(C(=O)N/N=C/c2ccc(N3CCOCC3)s2)cc1	inactive	–

SMILES	Potency	activity change, negative = inhibition
N#Cc1c(N)oc(-c2ccco2)c1-c1ccco1	inconclusive: 17.8 µM [inhibitor, full curve]	–
COc1ccc(NC(=O)CSc2sc3c(O)cc(=O)[nH]c3c2C#N)c(OC)c1	inconclusive: 0.708 µM [inhibitor, full curve]	–
C=CCc1cccc2cc(C(=O)Nc3ccc(CC(=O)O)cc3)c(=O)oc12	active: 50.1 µM	–
O=C(O)c1cc(S(=O)(=O)N2CCN(S(=O)(=O)c3ccc4ccccc4c3)CC2)ccc1Br	active: 35.5 µM	–
COc1ccc(/C=N/NC(=O)COc2cccc3cccnc23)cc1OC	inconclusive: 89.1 µM [inhibitor, single point]	–
COc1ccc(N=Cc2oc3ccc4ccccc4c3c2O)cc1	inconclusive: 39.8 µM [inhibitor, partial curve]	–
CCOC(=O)c1c(-c2ccc(C)cc2)csc1NC(=O)C1CC=CCC1C(=O)O (stereo unspecified)	inconclusive: 56.2 µM [inhibitor, partial curve]	–
CCOC(=O)C1(CCCc2ccccc2)CCN(C(=O)COC)CC1	inactive	–
O=c1cc(-c2ccc(O)cc2)oc2ccc3ccccc3c12	active: 31.6 µM	–
CCc1ccc(NS(=O)(=O)c2ccc3[nH]cc(C(=O)NC4CCCC4)c(=O)c3c2)cc1	inconclusive: 28.2 µM [inhibitor, partial curve]	–
CCOc1ccc(C2C(C#N)=C(N)N3C(=C2C#N)Sc2ccccc23)cc1 (stereo unspecified)	inconclusive: 3.98 µM [inhibitor, full curve, poor fit]	–
CC(=O)OCC1=C(C(=O)O)N2C(=O)C(NC(=O)CSc3ccncc3)[C@@H]2SC1 (stereo partly specified)	active: 14.1 µM	–
O=C(N/N=C/c1cc(Br)cc([N+](=O)[O-])c1O)c1ccc(NC(=O)c2ccc(F)cc2)cc1	inconclusive: 28.2 µM [inhibitor, full curve]	–
Cc1cc[n+](-c2[nH]c(=O)sc2/C=N/N=C(\[O-])c2ccccc2)cc1	active: 39.8 µM	–
Cc1cccc(/C=N/NC(=O)CN2CCCCCCC2)c1	inconclusive: 12.6 µM [inhibitor, partial curve]	–
Cc1nc2ccc3nc(NC(=O)c4ccc5c(c4)OCCO5)sc3c2s1	active: 89.1 µM	–
O=C(N/N=C/c1ccccc1O)c1cccc(C(F)(F)F)c1	inconclusive: 56.2 µM [inhibitor, partial curve]	–
COc1cc2c(cc1[N+](=O)[O-])n(C(C)C)c(=O)n2C(C)C	inconclusive: 89.1 µM [inhibitor, single point]	–
Cc1cc(NC(=O)CSc2nc(=O)cc(N)n2-c2ccc(F)cc2)no1	active: 100 µM	–
Cn1c(=O)oc2cc(S(=O)(=O)NCCC(=O)Nc3ccc(F)c(Cl)c3)ccc21	inconclusive: 22.4 µM [inhibitor, single point]	–
Cc1noc(NS(=O)(=O)c2ccc(NC(=O)c3ccc(N4C(=O)c5ccccc5C4=O)cc3)cc2)c1C	active: 50.1 µM	–
C=CCc1cc(Cl)ccc1OCCN1CC(C)OC(C)C1 (stereo unspecified)	inconclusive: 44.7 µM [inhibitor, partial curve]	–
CN(C(=O)c1ccc(S(=O)(=O)N2CCOCC2)cc1)C1CCS(=O)(=O)C1 (stereo unspecified)	inactive	–
CCN1CCCC1CNCC(O)COc1ccc(C(C)(C)C)cc1C (stereo unspecified)	inconclusive: 100 µM [inhibitor, single point]	–

SMILES	Potency	activity change, negative = inhibition
Cc1cc(C)nc(NC(=O)c2ccc([N+](=O)[O-])o2)n1	inconclusive: 39.8 µM [inhibitor, partial curve]	–
CCC(C)(C(=O)Nc1ccc(OC)cc1)N(C)C(=O)Cn1nnnc1N (stereo unspecified)	–	inconclusive: -107% [inhibitor] [at 0.0935 µM]
Cc1ccccc1NC(=O)c1c(C)nc(SCC(=O)OCc2ccccc2)c(C#N)c1-c1ccc(F)cc1	inconclusive: 70.8 µM [inhibitor, single point]	–
C#CCOCCOCCOCCNc1nc(N2CCN(C(=O)[C@H](CCC(=O)O)n3cc(C(N)CO)nn3)CC2)nc(N2CCN(C(=O)[C@H](CCC(=O)O)n3cc(C(N)CC(C)C)nn3)CC2)n1 (stereo partly specified)	inconclusive: 20 µM [inhibitor, partial curve, poor fit]	–
O=C(CSC1=NS(=O)(=O)c2ccccc2N1)NCc1ccc(F)cc1	–	inactive: 3.73% [at 0.505 µM]
Cc1ccc(S(=O)(=O)c2nnn3c2nc(N2CCOCC2)c2sccc23)cc1C	inactive	–
O=C(CSc1nc2ccccc2c(=O)[nH]1)Nc1nc(-c2ccc(Br)cc2)cs1	active: 12.6 µM	–
CC(c1ccccc1)N1C(=O)NC(NC(=O)c2cccnc2)(C(F)(F)F)C1=O (stereo unspecified)	inactive	–
CC(C)Cc1nc2oc3c(N4CCN(CCO)CC4)ncnc3c2c2c1CCCC2	inactive	–
O=C(CN(c1ccccc1)S(=O)(=O)c1ccccc1)NCCSCc1ccco1	active: 28.2 µM	–
CSc1nc(SCC(=O)O)c2sc3nc(-c4ccccc4)c4c(c3c2n1)CCC4	inconclusive: 70.8 µM [inhibitor, single point]	–
O=C(Nc1ccncc1)c1cc(-c2ccccn2)nc2ccccc12	inconclusive: 56.2 µM [inhibitor, partial curve]	–
O=C(COC(=O)c1cccc(S(=O)(=O)N2CCN(c3ccccc3)CC2)c1)NCc1ccco1	active: 79.4 µM	–
Cc1ccc(-c2cc(C(=O)Nc3cc(C(=O)O)ccc3C)c3ccccc3n2)cc1	inconclusive: 89.1 µM [inhibitor, single point]	–
COc1ccc(CCNCC(=O)Nc2ccc(C)c(S(=O)(=O)N(C)C)c2)cc1OC	active: 79.4 µM	–
CCOc1cccc(C(=O)Nc2cccc(-c3nnc(-c4ccccc4)o3)c2)c1	inactive	–
C=CC1=C2C=C(C3CC3)N(CC(C)C)C=C2C(=O)C(C)(OC(=O)c2ccco2)C1=O (stereo unspecified)	inconclusive: 2.82 µM [inhibitor, partial curve]	–
O=C(CCO)c1ccc(O)cc1	inconclusive: 35.5 µM [inhibitor, single point]	–
O=C(Cn1c2ccccc2c(=O)c2ccccc21)Nc1ccccc1F	inconclusive: 0.005 µM [inhibitor, full curve, poor fit]	–
O=C(O)c1cccc(NC(=S)NC(=O)c2ccncc2)c1	inconclusive: 20 µM [inhibitor, full curve, poor fit]	–
Nc1nc(N)c(N=Nc2ccc(C(=O)O)cc2)c(N)n1	inconclusive: 79.4 µM [inhibitor, partial curve]	–
CC1CCN(S(=O)(=O)c2ccc3c(c2)CCC(=O)N3CC(=O)Nc2cccc(C#N)c2)CC1	inconclusive: 28.2 µM [inhibitor, single point]	–
CC(=O)NC(CC(=O)OCC(=O)c1ccc(NC(=O)CC(C)C)cc1)c1ccccc1 (stereo unspecified)	active: 44.7 µM	–
